The values that follow come from PubChem BioAssay AID488969 (Vanderbilt High Throughput Screening Facility, 2010).

Whole data set: some 110,000 compounds, median “z-score” near -0.1, cut for the highest 2% near 2. This is one part of the list. Calls of active or inactive are those of the source.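 The calls were made as follows: active = z-score in the third read window above 3 or below -3; inactive = the rest.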

The target in the experiment is Metabotropic glutamate receptor 8 (Rattus norvegicus) (UniProt P70579). Kind of experiment: mGluR8 Gi/Go-coupled signaling modulation – cell-based, rat, thallium flux, HTS, primary screen (AID 488969). The note with it: HEK293 rat mGluR8, GIRK (G protein-gated inwardly rectifying potassium channel) thallium flux, FluoZin2; at 10 µM; stronger effect = higher value; submaximal glutamate (EC20) added with thallium.
Chain of UniProt P70579 (P70579 whole entry, looked up): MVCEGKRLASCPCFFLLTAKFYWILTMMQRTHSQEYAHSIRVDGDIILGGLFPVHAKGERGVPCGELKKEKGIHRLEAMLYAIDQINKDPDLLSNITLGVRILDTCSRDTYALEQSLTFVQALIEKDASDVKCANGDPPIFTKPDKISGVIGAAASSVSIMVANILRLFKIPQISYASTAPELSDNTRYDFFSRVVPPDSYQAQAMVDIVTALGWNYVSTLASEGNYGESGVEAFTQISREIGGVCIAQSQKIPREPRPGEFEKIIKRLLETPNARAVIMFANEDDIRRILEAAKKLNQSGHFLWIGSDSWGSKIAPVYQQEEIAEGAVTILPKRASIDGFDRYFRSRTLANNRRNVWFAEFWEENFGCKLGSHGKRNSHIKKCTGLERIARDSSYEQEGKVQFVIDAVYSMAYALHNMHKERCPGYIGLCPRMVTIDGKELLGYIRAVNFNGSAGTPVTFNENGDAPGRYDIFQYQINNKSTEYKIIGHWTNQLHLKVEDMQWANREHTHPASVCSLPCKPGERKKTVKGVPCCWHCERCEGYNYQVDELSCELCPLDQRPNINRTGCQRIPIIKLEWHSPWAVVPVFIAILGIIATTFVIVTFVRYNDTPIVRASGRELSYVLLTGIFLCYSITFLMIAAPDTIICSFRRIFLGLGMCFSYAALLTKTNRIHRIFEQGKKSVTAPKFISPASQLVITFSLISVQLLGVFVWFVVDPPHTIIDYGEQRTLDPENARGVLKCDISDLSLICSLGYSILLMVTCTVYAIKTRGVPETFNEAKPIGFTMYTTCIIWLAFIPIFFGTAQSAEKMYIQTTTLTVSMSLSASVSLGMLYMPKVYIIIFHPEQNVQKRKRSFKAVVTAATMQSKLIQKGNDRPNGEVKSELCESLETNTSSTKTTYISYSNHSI
The compound `CCOC(=O)C1=C(O)/C(=C\c2ccc(CNC(=O)C(=O)Nc3ccc(C)c(C)c3)o2)N=C1C` gave a z-score of -1.03.

`CCc1ccc(OCC2c3cc(OC)c(OC)cc3CCN2C(=S)NCCOC)cc1` (stereo unspecified) displayed a z-score of -0.104.

As to `COc1ccc(NC(=O)c2[nH]c(C)c(C(C)=O)c2C)cc1S(=O)(=O)N1CCOCC1`, the z-score was -0.17.

Regarding `CC(C)(C)NS(=O)(=O)c1ccc(CCC(=O)Nc2ccc3c(c2)OCO3)cc1`, the z-score amounted to 0.396.

`Cn1c(SC/C=C/c2ccccc2)nnc1-c1ccco1` returned a z-score of -0.135.

As for `CCc1ccccc1NC(=O)CN(C)C(=O)CSc1nnc(Nc2ccc(C)cc2)s1`, the z-score was 0.0529.

For the compound `CCOC(=O)N1CCC(N(CCN(C)C)C(=S)Nc2cc(C)cc(C)c2)CC1`, the z-score stood at 0.161.

Turning to `O=C(Nc1c(Cl)cc(Cl)cc1C(=O)NCCN1CCOCC1)c1ccc(Cl)cc1Cl`, the z-score was -1.39.

Compound `CC(=O)Nc1ccc(N(C(=O)Cc2c[nH]c3ccccc23)C(C(=O)NC2CCCCC2)c2ccco2)cc1` (stereo unspecified) had a z-score of 1.17.

The compound `CCOc1ccc(NC(=O)N2CCC(NC(=O)c3ccco3)CC2)cc1` showed a z-score of -0.0343.

Take `COc1ccc(NC(=O)C(=O)N2N=C(C(C)C)CC2(O)C(F)(F)F)cc1` (stereo unspecified): the z-score is 0.0277.

Turning to `CCC(C)NC(=S)Nc1ccccc1OC` (stereo unspecified), the z-score is -0.149.

For the compound `CCOC(=O)c1c(NS(=O)(=O)c2ccc(Br)cc2)sc2c1CCC2`, the z-score was active: 16.1.

Regarding `CC(Nc1cccc2ccccc12)C(=O)N/N=C/c1ccccn1` (stereo unspecified), the z-score amounted to 0.235.

In turn, `C/C(=N\NC(=S)NCCc1ccccc1)c1ccc(Cl)cc1` gave a z-score of 1.16.

In the case of `CN(C)c1ccnc2sc(C(N)=O)c(N)c12`, the z-score is -0.124.

For `O=C(Nc1nccs1)C1CCN(S(=O)(=O)c2cccnc2)CC1`, the z-score was -0.505.

On to `O=C(Cc1cccs1)NNC(=S)NC(=O)c1ccc(F)c(F)c1`, for which the z-score worked out at 0.74.

The compound `Cc1ccc(C(NC(=O)NCCCN2CCOCC2)=C(Cl)Cl)cc1F` had a z-score of -0.542.

Compound `Cc1ccc(S(=O)(=O)N2CCCCC2)cc1NC(=O)COC(=O)Cc1ccc(Cl)cc1` displayed a z-score of -0.0868.

With `C/C(CC(=O)Nc1ccc(F)cc1)=N\NC(=O)Cc1csc(N)n1`, the z-score was -0.15.

The compound `Cc1ccc(NC(=O)CSc2nnc(Cn3cnc4ccccc43)o2)c(C)c1` had a z-score of -0.147.

`Cc1cc(C)nc(SCC2COc3ccccc3O2)n1` (stereo unspecified) registered a z-score of -0.0671.

Compound `COc1ccc(S(=O)(=O)NCC(=O)O)cc1C(=O)NC1CCCCC1` yielded a z-score of 0.369.

For `CCn1c(SCC(=O)N/N=C/c2cccs2)nc2ccccc21`, the z-score came to 0.0232.

As to `CCCCC(CC)C(=O)Nc1ccc(Cl)cn1` (stereo unspecified), the z-score is -0.112.

Take `CCOC(=O)c1sc(NC(=O)Cn2nnc3sc4c(c3c2=O)CCCC4)nc1C`: the z-score was 0.0248.

In turn, `Cc1ncsc1CCSc1nc2ccccc2c(=O)n1C` registered a z-score of -0.57.

On to `CCOc1ccccc1NC(=O)c1cccc(NC(=O)c2ccco2)c1`, for which the z-score is -0.729.

Compound `Cc1ccc(NC(=O)CNc2ccc(Cl)c(Cl)c2)cc1S(=O)(=O)N(C)C` yielded a z-score of 0.188.

On to `CCCc1n[nH]c2c1/C(=N/O)CC(c1ccccc1)C2` (stereo unspecified), for which the z-score came out at 0.307.

Take `CCNC(=S)NNC(=O)c1cccs1`: the z-score is -0.146.

Consider `O=C(CSc1ncn(-c2ccccc2)n1)N1CCc2ccccc21`, for which the z-score was 0.287.

`CCOC(=O)C1=C(O)CSC1=Nc1ccccc1` registered a z-score of 0.509.

The compound `Cc1c(O)c(CN2CCCCC2)cc2c1oc(=O)c1ccccc12` returned a z-score of -0.0565.

The compound `COc1cccc(/C(O)=C2/C(=O)C(=O)N(CCN3CCOCC3)C2c2cccs2)c1` (stereo unspecified) displayed a z-score of -0.0126.

Turning to `COc1ccc(-c2nc3ccccc3c(=O)n2NC(=O)c2cccnc2Cl)cc1OC`, the z-score came to 0.164.

In turn, `CC(C)(C)N(NC(=O)Nc1ccc(Cl)cc1)C(=O)c1ccccc1` returned a z-score of 1.25.

`Cc1cc(N2CCCCC2)nc(NCc2ccccc2)n1` had a z-score of 0.794.

With `N/C(=C/C(=O)c1ccccc1O)C(F)(F)F`, the z-score was -0.604.

Consider `O=C(O)CC(NC(=O)COc1ccc(Cl)cc1Cl)C(=O)O` (stereo unspecified), for which the z-score was 0.351.

Compound `CC(=O)N1CCCc2cc(S(=O)(=O)NC(C(=O)NC(C)c3ccccc3)C(C)C)ccc21` (stereo unspecified) showed a z-score of -1.09.

`C[n+]1ccc(C(=O)N/N=C/c2ccco2)cc1`: the z-score was -0.101.

Turning to `COc1ccc(CC(=O)Nn2c(-c3ccccc3)nc3ccccc3c2=O)cc1`, the z-score came to 0.469.

As to `N#CC1=C(N)Oc2n[nH]c(-c3ccccc3)c2C1c1cccc(OC(=O)N2CCOCC2)c1` (stereo unspecified), the z-score was determined as 0.0175.

For `Clc1ccc(-n2nnnc2SCc2cn3ccccc3n2)cc1`, the z-score was -0.137.

As for `CC(C)NS(=O)(=O)c1ccc(OCC(=O)Nc2ccccc2F)cc1`, the z-score is 0.0524.

As to `O=C(CSc1ccc(-c2ccco2)nn1)NCc1ccc(F)cc1`, the z-score stood at 0.0645.

Compound `CCN(CC)C(=O)C1CCN(c2ncnc3c2cnn3-c2ccc(C)cc2C)CC1` registered a z-score of -0.439.

For the compound `Fc1ccc(CNC(=S)Nc2ccc(Cl)cc2)cc1`, the z-score was determined as 0.385.

In the case of `Cc1cc2c(C)nc3ccccc3c2o1`, the z-score was -0.371.

In the case of `Cc1ccc(S(=O)(=O)N(CC(=O)NCCSCc2ccco2)c2cc(C)ccc2C)cc1`, the z-score is -0.0745.

The compound `Cn1c(OCc2cccnc2)nc2c1c(=O)n(Cc1ccc(Cl)cc1)c(=O)n2C` showed a z-score of -0.506.

In turn, `COc1ccc(-c2cc(N3C(=O)Nc4ccccc4N3O)n[nH]2)cc1OC` returned a z-score of -0.444.

`CCOC(=O)c1sc(NN=C(C(=O)OC)C(=O)OC)c(C(=O)OCC)c1C` had a z-score of 2.57.

As to `CC(O)CN(C)CC/C=C1/c2ccccc2CSc2ccccc21` (stereo unspecified), the z-score was 0.694.

Take `CCOC1(NC(=O)c2ccccc2)C(C)=CC(=O)C=C1C`: the z-score was 0.317.

Compound `O=C1c2ccncc2C(=O)N1CO` came in with a z-score of 1.16.

`COc1cccc(C(=O)N2CCN(Cc3cccc(F)c3)CC2)c1` gave a z-score of -0.151.

In turn, `NC(=O)Cc1ccc(Nc2nnc(-c3ccccc3)c3ccccc23)cc1` had a z-score of 0.281.

The compound `Cc1cc(/C=N/n2c(COc3ccccc3)nc3ccccc3c2=O)c(O)c([N+](=O)[O-])c1` yielded a z-score of -0.382.

In turn, `Cc1noc(C)c1COC(=O)CCC(=O)c1ccc(F)cc1` came in with a z-score of 0.35.

`COc1ccccc1NC(=O)CSc1nnc(Cn2cnc3ccccc32)n1C` came in with a z-score of 0.264.

Compound `CN1CCN(CCCNC(=O)c2nnc(Cc3c(F)cccc3Cl)o2)CC1` returned a z-score of 0.0779.

`CC(=O)c1ccccc1C(=O)NCc1cccnc1`: the z-score was -0.207.

With `COc1cc(N(C)C)c([N+](=O)[O-])cc1C(=O)NC(C)CNc1ccc([N+](=O)[O-])cc1Cl` (stereo unspecified), the z-score was 0.259.

Regarding `COCCOC(=O)C1=C(C)NC2=C(C(=O)CCC2)C1c1ccc2c(c1)OCO2` (stereo unspecified), the z-score was -0.0243.

For `O=C(O)CCc1ccc(-c2ccccc2)n1CC1CCCO1` (stereo unspecified), the z-score is -0.0265.

Consider `COc1cc(NC(=S)NCc2ccco2)cc(OC)c1`, for which the z-score was -0.0613.

`S=c1[nH]nc(C2CCCCC2)n1/N=C/c1cccs1`: the z-score was determined as 2.48.

On to `Cn1cnnc1SCCNS(=O)(=O)c1ccccc1`, for which the z-score is -0.049.
